Each structure is given as a SMILES string. The whole screen tested about 52,000 compounds, of which about 4,300 (8.3%) were called active. Cut-off read from the data, not from the text of the source: active = survival mostly below about 52% (no sharp cut-off); inactive = mostly above about 56%. The list shows a part of the results.

Drawing on PubChem BioAssay AID463173 (ICCB-Longwood Screening Facility, Harvard Medical School, 2010), this text covers survival for 25 compounds.

This assay concerns DeltatarO mutant. The assay is described as follows: S. aureus survival, RN4220 and DeltatarO strains – OD600, teichoic acid synthesis inhibitors, primary screen (AID 463173). Conditions: S. aureus RN4220 wild type/DeltatarO growth, OD600, 18 h, active compounds read low, screened at 18.75 µg/mL (by protocol).
As to `COc1cccc2c1cc1c(=O)n(CC(=O)N3CCN(c4cccc(Cl)c4)CC3)nc(C)n12`, the survival was inactive: 105%.

For the compound `O=C(Nc1ccc2nc(SCCOc3ccccc3)sc2c1)c1ccccc1F`, the survival is inactive: 93%. The value for `Cc1ccc(CSC2=Nc3ccccc3C3=NC(CC(=O)NCc4cccs4)C(=O)N23)c(C)c1` (stereo not given) was inactive: 77%; that for `COc1ccc(-c2cn3c(n2)sc2cc(C(=O)Nc4cccc(SC)c4)ccc23)cc1` was inactive: 59%; that for `Nc1n[nH]c(N)c1N=Nc1ccc(Cl)cc1` was inactive: 64%. The value for `CCc1ccc(N(CC)C(=O)CCn2cnc3onc(-c4ccc(F)cc4)c3c2=O)cc1` was inactive: 77%.

`CCOC(=O)c1c(C)c(-c2ccccc2)n(CC(=O)Nc2ccc(OCC)cc2)c1C`: the survival was inactive: 73%. Regarding `Cc1ccc(Cl)cc1N1CCN(C(=O)C2CCN(S(=O)(=O)Cc3ccccc3)CC2)CC1`, the survival was inactive: 72%. As for `COc1ccccc1-c1noc(-c2ccc(N3CCN(C)CC3)c([N+](=O)[O-])c2)n1`, the survival was inactive: 113%. As for `O=C(c1ccc(Cl)cc1)N1CCC(c2nc3ccccc3o2)CC1`, the figure is inactive: 79%; as for `CCOc1ccc(NC(=O)c2c(NCc3ccc(C)o3)sc3c2CCCCC3)cc1`, inactive: 80%; as for `COCCn1c(SC)nnc1-c1ccccc1`, inactive: 75%.

Regarding `CCn1cc(C(=O)OCC(=O)Nc2cc(OC)cc(OC)c2)c(=O)c2ccc(C)nc21`, the survival is inactive: 59%. As for `Cc1ccc(CNC(=O)CN2C(=O)CSc3ccc(S(=O)(=O)N(C)C)cc32)cc1`, the survival was inactive: 99%. As for `Nc1ncnc2c1ncn2CC(O)CO` (stereo not given), the survival is inactive: 81%. As for `O=C(OCc1cc(=O)n2nc(-c3cccs3)sc2n1)c1ccccc1`, the figure is inactive: 65%; as for `CC(=O)n1nc(-c2cccnc2)nc1NCc1ccc(F)cc1`, inactive: 83%; as for `CNC(=O)c1ccccc1Nc1ccc(SC(F)F)cc1`, inactive: 89%. The value for `COC(=O)c1ccccc1NC(=O)c1ccc(-c2nc(COc3ccccc3)c(C)o2)cc1` was inactive: 102%; that for `CCCCc1nn2c(=O)cc(COC(=O)c3cccc(Cl)c3)nc2s1` was inactive: 67%. The value for `O=C(c1ccccc1)c1cn(Cc2ccc(F)cc2)c2ccccc2c1=O` was inactive: 74%. Take `Cc1cccc(C)c1NC(=O)Cn1nnc(C(=O)Nc2c(C)cccc2C)c1N`: the survival was inactive: 91%.

Turning to `O=C(CCC1N=C2c3ccccc3N=C(SCc3cccc(F)c3)N2C1=O)NCCc1ccccc1` (stereo not given), the survival is inactive: 83%. As for `Cc1cc(OCC(=O)Nc2c(C(=O)c3ccccc3)oc3ccccc23)cc(C)c1Cl`, the figure is inactive: 95%; as for `CC(C)CN(CCCNC(=O)c1cc(-c2cccs2)nc2ccccc12)CC(C)C`, inactive: 46%.
